Results taken from the supplement of paper PMC12067230.
The data scatter; read single values as rough.
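Note: [psi-pin-] Saccharomyces cerevisiae expressing SupN fusions, induced by 100 µM Cu2SO4, selected 7 d at 30 °C without adenine and uracil, scored by deep sequencing of output versus input.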

Experiment: amyloid nucleation score relative to library mode (yeast Sup35 reporter selection) (log enrichment difference); higher = more amyloid nucleation; sequences are the first 22 residues of the Bri2 peptide extended by up to 12 random residues
Conditions: random library (experiment): 1;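 active = nucleation score significantly above 0 at FDR 0.05; inactive = not significantly above 0 or absent from output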
EASNCFAIRHFENKFAVETLICHSGRGARDAAWR showed an amyloid nucleation score of 2.07.
For EASNCFAIRHFENKFAVETLICVALEHLNVSRLG, the amyloid nucleation score was 4.75.
With EASNCFAIRHFENKFAVETLICGHRLVLL the amyloid nucleation score was “inactive”.
In the case of EASNCFAIRHFENKFAVETLICCVVGESVGWRRR, the amyloid nucleation score is reported as 8.54.
EASNCFAIRHFENKFAVETLICHYCFHGSVGDYA showed an amyloid nucleation score of 7.46.
For EASNCFAIRHFENKFAVETLICDSSVVSGMSGRH, the amyloid nucleation score was “inactive”.
For EASNCFAIRHFENKFAVETLICQSAYTY, the amyloid nucleation score was “inactive”.
With EASNCFAIRHFENKFAVETLICVCMVIFYRDMYY the amyloid nucleation score was “inactive”.
With EASNCFAIRHFENKFAVETLICQIVIDFYGVSDG the amyloid nucleation score was “inactive”.
In the case of EASNCFAIRHFENKFAVETLICMTTLALCACVR, the amyloid nucleation score is reported as “inactive”.
With EASNCFAIRHFENKFAVETLICKRVCLRCWGRKH the amyloid nucleation score was “inactive”.
In the case of EASNCFAIRHFENKFAVETLICVLSS, the amyloid nucleation score is reported as “inactive”.
For EASNCFAIRHFENKFAVETLICLMVSQPMLSSVV, the amyloid nucleation score was “inactive”.
EASNCFAIRHFENKFAVETLICDCGSGNLYFHVA gave an amyloid nucleation score of 6.84.
With EASNCFAIRHFENKFAVETLICKVSFACQ the amyloid nucleation score was “inactive”.
In the case of EASNCFAIRHFENKFAVETLICVSERLKHFVGVG, the amyloid nucleation score is reported as “inactive”.
In the case of EASNCFAIRHFENKFAVETLICWIAWRYGTDGGS, the amyloid nucleation score is reported as “inactive”.
In the case of EASNCFAIRHFENKFAVETLICVT, the amyloid nucleation score is reported as “inactive”.
With EASNCFAIRHFENKFAVETLICYATTLMLSLLHV the amyloid nucleation score was “inactive”.
For EASNCFAIRHFENKFAVETLICYRVYLRYDNLCL, the amyloid nucleation score was “inactive”.
With EASNCFAIRHFENKFAVETLICGGRRVGLSEGW the amyloid nucleation score was “inactive”.
In the case of EASNCFAIRHFENKFAVETLICGPSAGSGIEAAS, the amyloid nucleation score is reported as “inactive”.
In the case of EASNCFAIRHFENKFAVETLICLRVFWRIACIES, the amyloid nucleation score is reported as “inactive”.
For EASNCFAIRHFENKFAVETLICDCRGRHLWWCRL, the amyloid nucleation score was “inactive”.
For EASNCFAIRHFENKFAVETLICGKTLQGMGYWAR, the amyloid nucleation score was 4.35.
Sequence EASNCFAIRHFENKFAVETLICTHLLFRS has an amyloid nucleation score of 2.43.
In the case of EASNCFAIRHFENKFAVETLICFFMMAYARNKVA, the amyloid nucleation score is reported as “inactive”.
With EASNCFAIRHFENKFAVETLICICSNSDRFCFDG the amyloid nucleation score was 5.83.
EASNCFAIRHFENKFAVETLICLSLFIYL gave an amyloid nucleation score of -0.595.
For EASNCFAIRHFENKFAVETLICLPVFTSCSSDR, the amyloid nucleation score was 6.21.
In the case of EASNCFAIRHFENKFAVETLICRIGEGPYLSAYR, the amyloid nucleation score is reported as “inactive”.
Work on EASNCFAIRHFENKFAVETLICPREVCRCRRMGW yielded an amyloid nucleation score of 5.68.
In the case of EASNCFAIRHFENKFAVETLICCCVVLGLGRTRG, the amyloid nucleation score is reported as 2.62.
With EASNCFAIRHFENKFAVETLICWSLWRDGVMVCW the amyloid nucleation score was “inactive”.
In the case of EASNCFAIRHFENKFAVETLICKHIGD, the amyloid nucleation score is reported as 0.498.
EASNCFAIRHFENKFAVETLICFGSLSRW gave an amyloid nucleation score of 6.72.
With EASNCFAIRHFENKFAVETLICLIIRPDPGRVHC the amyloid nucleation score was “inactive”.
With EASNCFAIRHFENKFAVETLICKSIIAFTYAPS the amyloid nucleation score was “inactive”.
In the case of EASNCFAIRHFENKFAVETLICLALWGWKGSRQA, the amyloid nucleation score is reported as “inactive”.
For EASNCFAIRHFENKFAVETLICASNRNYSSVVIA, the amyloid nucleation score was “inactive”.
For EASNCFAIRHFENKFAVETLICVVYLAVPARGDG, the amyloid nucleation score was “inactive”.
With EASNCFAIRHFENKFAVETLICRSACSVWDWQCW the amyloid nucleation score was 5.1.
For EASNCFAIRHFENKFAVETLICMCYG, the amyloid nucleation score was “inactive”.
Work on EASNCFAIRHFENKFAVETLICGCLCTASERRYV yielded an amyloid nucleation score of 7.02.
With EASNCFAIRHFENKFAVETLICKVLPFLFGACIV the amyloid nucleation score was “inactive”.
In the case of EASNCFAIRHFENKFAVETLICESGSGQHPASAV, the amyloid nucleation score is reported as “inactive”.
In the case of EASNCFAIRHFENKFAVETLICCT, the amyloid nucleation score is reported as 0.697.
For EASNCFAIRHFENKFAVETLICLRKKGGEQLPFG, the amyloid nucleation score was “inactive”.
In the case of EASNCFAIRHFENKFAVETLICTVREKHQARCEI, the amyloid nucleation score is reported as “inactive”.
Work on EASNCFAIRHFENKFAVETLICGIWTVRTLRFMR yielded an amyloid nucleation score of 3.72.
For EASNCFAIRHFENKFAVETLICYLS, the amyloid nucleation score was 6.79.

Same assay, conditions: random library (experiment): 2
Sequence EASNCFAIRHFENKFAVETLICLWYCARPRPCRG has an amyloid nucleation score of -0.344.
Work on EASNCFAIRHFENKFAVETLICTFLNGVDLRSPD yielded an amyloid nucleation score of 7.03.
EASNCFAIRHFENKFAVETLICLSLF gave an amyloid nucleation score of 8.13.
For EASNCFAIRHFENKFAVETLICMFSIIAG, the amyloid nucleation score was “inactive”.
In the case of EASNCFAIRHFENKFAVETLICTQASLDEDLNFL, the amyloid nucleation score is reported as “inactive”.
Sequence EASNCFAIRHFENKFAVETLICVIN has an amyloid nucleation score of 8.24.
For EASNCFAIRHFENKFAVETLICLKWDSIALHNRS, the amyloid nucleation score was 3.5.
For EASNCFAIRHFENKFAVETLICTDISHVKVVFAM, the amyloid nucleation score was “inactive”.
With EASNCFAIRHFENKFAVETLICLLPWKNYCYRLT the amyloid nucleation score was -0.17.
With EASNCFAIRHFENKFAVETLICHIKGLVP the amyloid nucleation score was “inactive”.
In the case of EASNCFAIRHFENKFAVETLICRDSGHDVRKLDM, the amyloid nucleation score is reported as “inactive”.
For EASNCFAIRHFENKFAVETLICIES, the amyloid nucleation score was “inactive”.
In the case of EASNCFAIRHFENKFAVETLICNHEYVECFIVAA, the amyloid nucleation score is reported as “inactive”.
For EASNCFAIRHFENKFAVETLICRSNMPRLRGY, the amyloid nucleation score was “inactive”.
In the case of EASNCFAIRHFENKFAVETLICVRNDETGGCVLP, the amyloid nucleation score is reported as “inactive”.
EASNCFAIRHFENKFAVETLICFIKRLKSNCKIV gave an amyloid nucleation score of -0.859.
For EASNCFAIRHFENKFAVETLICCHYLVSVVAFYW, the amyloid nucleation score was “inactive”.
In the case of EASNCFAIRHFENKFAVETLICIFLYCV, the amyloid nucleation score is reported as “inactive”.
Sequence EASNCFAIRHFENKFAVETLICVVKTYHFDRRFM has an amyloid nucleation score of 4.03.
With EASNCFAIRHFENKFAVETLICIFLCWMVSGVI the amyloid nucleation score was “inactive”.
For EASNCFAIRHFENKFAVETLICAYYLETRVFGSY, the amyloid nucleation score was “inactive”.
With EASNCFAIRHFENKFAVETLICVGEISL the amyloid nucleation score was 4.8.
Sequence EASNCFAIRHFENKFAVETLICLPDGLRPWEWVG has an amyloid nucleation score of 5.16.
With EASNCFAIRHFENKFAVETLICRLHKCTFRNLFL the amyloid nucleation score was “inactive”.
Work on EASNCFAIRHFENKFAVETLICNARSAERFKVMC yielded an amyloid nucleation score of 0.741.
For EASNCFAIRHFENKFAVETLICVYKVVWWVPKSW, the amyloid nucleation score was “inactive”.
For EASNCFAIRHFENKFAVETLICIVCNRHYRLYAV, the amyloid nucleation score was “inactive”.
In the case of EASNCFAIRHFENKFAVETLICVMMCSLSICCGV, the amyloid nucleation score is reported as “inactive”.
In the case of EASNCFAIRHFENKFAVETLICLLAVLLKGDSIK, the amyloid nucleation score is reported as “inactive”.
In the case of EASNCFAIRHFENKFAVETLICRY, the amyloid nucleation score is reported as “inactive”.
With EASNCFAIRHFENKFAVETLICPRSSMCHEGL the amyloid nucleation score was “inactive”.
EASNCFAIRHFENKFAVETLICVVNTQFVEQPYL showed an amyloid nucleation score of 4.72.
With EASNCFAIRHFENKFAVETLICKPHTWLLGEMVV the amyloid nucleation score was “inactive”.
Sequence EASNCFAIRHFENKFAVETLICMRRTLIVSTYAV has an amyloid nucleation score of 0.47.
With EASNCFAIRHFENKFAVETLICKSYI the amyloid nucleation score was “inactive”.
In the case of EASNCFAIRHFENKFAVETLICVYYASQMRKYFM, the amyloid nucleation score is reported as “inactive”.
EASNCFAIRHFENKFAVETLICFSYSSVNTLYST gave an amyloid nucleation score of 5.35.
For EASNCFAIRHFENKFAVETLICASLNPDLRFHKC, the amyloid nucleation score was “inactive”.
Sequence EASNCFAIRHFENKFAVETLICHRYVAHYIVLER has an amyloid nucleation score of 2.68.

Same assay, conditions: random library (experiment): 3
EASNCFAIRHFENKFAVETLICMRCMGL gave an amyloid nucleation score of 4.96.
For EASNCFAIRHFENKFAVETLICIASTSL, the amyloid nucleation score was “inactive”.
With EASNCFAIRHFENKFAVETLICCNW the amyloid nucleation score was 8.11.
Work on EASNCFAIRHFENKFAVETLICTATLFDAVAQRW yielded an amyloid nucleation score of 4.33.
In the case of EASNCFAIRHFENKFAVETLICGMVACRIVVSAL, the amyloid nucleation score is reported as “inactive”.
With EASNCFAIRHFENKFAVETLICWVSYLSMPVNQT the amyloid nucleation score was “inactive”.
In the case of EASNCFAIRHFENKFAVETLICRAQVVSAPSSRR, the amyloid nucleation score is reported as “inactive”.
In the case of EASNCFAIRHFENKFAVETLICCCSFGSR, the amyloid nucleation score is reported as 9.72.
Sequence EASNCFAIRHFENKFAVETLICCSGEMVLSCAKR has an amyloid nucleation score of 8.28.
For EASNCFAIRHFENKFAVETLICLVGKYSYNYLTT, the amyloid nucleation score was “inactive”.
In the case of EASNCFAIRHFENKFAVETLICPGTDRSGTIEGW, the amyloid nucleation score is reported as “inactive”.
With EASNCFAIRHFENKFAVETLICLQCPCRSSAVVG the amyloid nucleation score was 5.42.
EASNCFAIRHFENKFAVETLICISYGAFLVCRRQ gave an amyloid nucleation score of 2.81.
For EASNCFAIRHFENKFAVETLICCENAFVETVETR, the amyloid nucleation score was 2.39.
EASNCFAIRHFENKFAVETLICLDMHVNSMIMPT showed an amyloid nucleation score of 6.83.
For EASNCFAIRHFENKFAVETLICFRMLNPLSEISL, the amyloid nucleation score was “inactive”.
In the case of EASNCFAIRHFENKFAVETLICLGVQRERQDMVG, the amyloid nucleation score is reported as 3.92.
For EASNCFAIRHFENKFAVETLICLSGLKRDVSCSV, the amyloid nucleation score was “inactive”.
With EASNCFAIRHFENKFAVETLICDVIYEYLSVSVR the amyloid nucleation score was “inactive”.
With EASNCFAIRHFENKFAVETLICHLHRVGREAAWA the amyloid nucleation score was 0.768.
For EASNCFAIRHFENKFAVETLICRCTAWLGPTAQV, the amyloid nucleation score was “inactive”.
In the case of EASNCFAIRHFENKFAVETLICRLVRCRIFVRCP, the amyloid nucleation score is reported as “inactive”.
For EASNCFAIRHFENKFAVETLICFGRKLTQIVTGW, the amyloid nucleation score was “inactive”.
With EASNCFAIRHFENKFAVETLICIWTWCSKVTLVK the amyloid nucleation score was “inactive”.
Sequence EASNCFAIRHFENKFAVETLICGSVVSCGICPTQ has an amyloid nucleation score of 8.18.
With EASNCFAIRHFENKFAVETLICLRIDDGFAWCGG the amyloid nucleation score was “inactive”.
For EASNCFAIRHFENKFAVETLICVHSSSL, the amyloid nucleation score was -0.271.
In the case of EASNCFAIRHFENKFAVETLICYHS, the amyloid nucleation score is reported as “inactive”.
With EASNCFAIRHFENKFAVETLICGKQHRQLMRVLV the amyloid nucleation score was “inactive”.
